Read counts are not given, so values of variants with three or more changes are uncertain.
B1: LINE1-mini (parent)
chain: GGCAGAGCUCAACACAGCGUGGCAAAGUGGCUGUGGCUAGACUGCC

Variants of: B1
Experiment: self-cleavage, relative activity (ratio to wild type); higher = more cleavage; in vitro, sequencing; the parent is a self-cleaving ribozyme
With GGCAGACGUCAACCCAUCAUGGCAAAGUGGCUGUGUCUAGACUGCC [G7C C8G A14C G17U G19A G36U] the self-cleavage was 0.21.
Work on GGCAUAGCUCAACACAGCGUGGCUAGGUGGCUGUGGCUAGACUGCC [G5U A24U A26G] yielded a self-cleavage of 0.08.
Variant GACAGAGCUCAACACACCCUGGCAAAGUGGCUCUGGCUAGACUGCC [G2A G17C G19C G33C] has a self-cleavage of 0.03.
Work on GGAAGAGCUCUACACAGCGUGGCAAAGUGGCUGAGGCUAGACUGCC [C3A A11U U34A] yielded a self-cleavage of 0.01.
In the case of GGCAGAGCUCAACACAGCGUGGUAAAGUGGCGCCGGCUAGACUGCC [C23U U32G G33C U34C], the self-cleavage is reported as 0.15.
UGCAGAGGUCAACACAGCGUGGCAAAGUGGCUGGGGCUAGACUGCC [G1U C8G U34G] showed a self-cleavage of 0.05.
Variant GGCAGAGGUCAACACAACGUGGCAAAGUGGCUAUGGCUAGACUACC [C8G G17A G33A G44A] has a self-cleavage of 0.05.
GGCAGAGCUCAACCCAGCGUGGCAAAUUGGCAGUGGCUCGACUGCC [A14C G27U U32A A39C] showed a self-cleavage of 0.02.
Work on GGCAGGGCUCAACACAGGAUGGCAAAGUGGCUGUGGCUAGACUGCC [A6G C18G G19A] yielded a self-cleavage of 0.07.
Work on GGCACAGCUCAACACUGUGUGGCAAAGUGGCUGUGGUUAGACUGCC [G5C A16U C18U C37U] yielded a self-cleavage of 0.03.
In the case of GUCAGAGCUCAACACAGCCUGGCAAAGUGCCUGUGGCUAGACUGCC [G2U G19C G30C], the self-cleavage is reported as 0.02.
Variant GGCACAGCACAACACAGCGUGGCAAAGUGGCUGUGGCUGGACUGCC [G5C U9A A39G] has a self-cleavage of 0.05.
Work on AGCAGAGCUCAACACAGCGUGGUAAUGUGGCUGUGGCUACACUGCC [G1A C23U A26U G40C] yielded a self-cleavage of 0.07.
GGCAGGGCUCAGCACAGCGUGGCAAAGUGGCUGUGGCUUAACUGCC [A6G A12G A39U G40A] gave a self-cleavage of 0.03.
GGCAGAGCUCAACACAUCGUGGCAAAGGGGCUGUCGCUAGACUGCC [G17U U28G G35C] gave a self-cleavage of 0.06.
GGCAGAGCUCUACACAGCGUAGCAAAGUGGCUGUGGCUAGAUUGCC [A11U G21A C42U] gave a self-cleavage of 0.05.
Variant GGCAGAGCUAAACACAGCGUGGCAAAGUGGCUGAGGCUAGACUCCC [C10A U34A G44C] has a self-cleavage of 0.02.
GGCAGAGCCCAUCACAGCGUGGCAAAGUGGCUGUGGCUCCACUGCU [U9C A12U A39C G40C C46U] gave a self-cleavage of 0.02.
Work on GGAAGAAUUCAACACAGCGUGGCGAUGUGGCUGUUGCGAGACUGCC [C3A G7A C8U A24G A26U G35U U38G] yielded a self-cleavage of 1.6.
GGCAGAGCUCAACACAGCGUGGCAAAGUGUCUGUGGAUAGACUACC [G30U C37A G44A] gave a self-cleavage of 0.06.
In the case of GGUAGAGCUCAACAGAGAGUCGCAAAGUGGAUGUGGCUAGAAUGCC [C3U C15G C18A G21C C31A C42A], the self-cleavage is reported as 0.04.
GGCAGAGUUCAACACAGCGUGGCAAAGUGUCUGUGGCUGGACUGCC [C8U G30U A39G] gave a self-cleavage of 0.03.
In the case of GGUACAGCUAAACACCGCGUGGCAAAGUGGCUGUGGCUACACUGCC [C3U G5C C10A A16C G40C], the self-cleavage is reported as 0.04.
GGCAGAGCUCAACAAAGCGUGGCAAAGUGGCUGUAGCUAGACUGAC [C15A G35A C45A] showed a self-cleavage of 0.01.
In the case of GGCAGAGCUCAACACACCGUGAUAAAGUGGCUGUGGCUAGACUGCC [G17C G22A C23U], the self-cleavage is reported as 1.23.
In the case of GACAGAGCUCAACACAGCGUGGCAAAGUGGCUCUGGCUAGACUACC [G2A G33C G44A], the self-cleavage is reported as 0.12.
In the case of GGCAGAGCUCGACACACCGUGGCAAAGUGGCUGUGGCUAGACGGCA [A11G G17C U43G C46A], the self-cleavage is reported as 0.01.
With GGCAGACCGCAACACAGCGUGGCAAAGUGGCUAUGGCUAGACUGCC [G7C U9G G33A] the self-cleavage was 0.2.
Work on GGCAGAGGUCAACACAACGUGGCAAAUUGGCUAUGGGUAGAAUGCC [C8G G17A G27U G33A C37G C42A] yielded a self-cleavage of 0.02.
GGCAGAGCUCAAAACAGCGUGGCAAAGUGGAUGUGGCUAGACAGCA [C13A C31A U43A C46A] showed a self-cleavage of 0.
UGCAGAGCCCAACACAGCGUGGCAAAGUGGCUGUGGCUAGACUUCC [G1U U9C G44U] gave a self-cleavage of 0.03.
For GGCAGAGCUCUACCCAGCGCGGCAAAGUGGCUGUGGCUAGACUGCC [A11U A14C U20C], the self-cleavage was 0.03.
In the case of CACAGAGCUCAACACAGCGUGGCAAAGUAGCGUUGGCAAGACUGCC [G1C G2A G29A U32G G33U U38A], the self-cleavage is reported as 0.07.
Variant AGCAGAGCUAAACUCAGCGUGGCAAAGUGGCUGUGGCUAGACUGCA [G1A C10A A14U C46A] has a self-cleavage of 0.08.
Variant GGCAGAGCUCAACACAACGUGGCGAAGUGGCUGUGGCAAGACUGCC [G17A A24G U38A] has a self-cleavage of 0.03.
For GGCGGACCUCAACAGAGCUUGGCAAAGUGGCUGUGGAUAGACUGCC [A4G G7C C15G G19U C37A], the self-cleavage was 0.04.
In the case of GGCAUUGCUCAACAUAGCGUGGCAAAGUGUCUGUGGCUAGACUGCC [G5U A6U C15U G30U], the self-cleavage is reported as 0.19.
AGCAGAGCUCAACACAGCGUGGCAAAGUGGCUGUGGCUAGACCGUC [G1A U43C C45U] showed a self-cleavage of 0.17.
With CGCAGAGCUCAACACAGCGUGGCAAAGUGGCUGUGCCUUGACUGCA [G1C G36C A39U C46A] the self-cleavage was 0.
Variant GGCAGAGCUCAACACAGCGUCGCAAAGUGUCUGUGGCUAGGCUGCC [G21C G30U A41G] has a self-cleavage of 0.57.
Work on GGCAGAGCUCAAAACAGCGUGGCAAAGUGGAGAUGGCUAGACUUCC [C13A C31A U32G G33A G44U] yielded a self-cleavage of 0.06.
With GGCAGCCCGCAACACAGCGUGGCAAAGUGGCUGUGGCGAGACUGCC [A6C G7C U9G U38G] the self-cleavage was 0.
With GGCAGAGCUAAAUACAGUGCGGCAAAAUGGCUGUUGCUAGACUGCC [C10A C13U C18U U20C G27A G35U] the self-cleavage was 0.02.
Variant GGCAGAGCUCAACACAGCGUGUCAAAUCGGCUGUGGCUAGAAAGCC [G22U G27U U28C C42A U43A] has a self-cleavage of 0.25.
GGCAGAGCUCAACACAAAGUGGCAAUGUGGCUGUGGUUAGACUGCC [G17A C18A A26U C37U] gave a self-cleavage of 0.02.
Variant GGCCGAGCUCAACUCAGCGUGGCCAAGUGGCUGUGGCUAGACUGCC [A4C A14U A24C] has a self-cleavage of 0.12.
Variant GGCAGAGCCCAACACAGCGUGGCAAAGUGGCUGUAGCUAGACUGGC [U9C G35A C45G] has a self-cleavage of 0.01.
For GGCAGAGCUCAACAAGGCGUGGCAAAGUGGCUGUGGCCACACUGCC [C15A A16G U38C G40C], the self-cleavage was 0.05.
GGCAGAGCUCAACACAACAUGGCAAAGUGGCUGUGGCUAAGCUGCC [G17A G19A G40A A41G] showed a self-cleavage of 0.06.
With GGCAGAGCUUAACACAGCGUGGCAAAGUGGCUUUGGCUAGUCUGCC [C10U G33U A41U] the self-cleavage was 0.02.
For GGCAGAGAUCAACACAGCGUGGCAAAGUGGCUGUGGCAAGACUGGC [C8A U38A C45G], the self-cleavage was 0.38.
GACAGAGCUCAACACAGGGUGGCAAAGUGGCUGCGGCUAGACUGCC [G2A C18G U34C] gave a self-cleavage of 0.09.
With GGCAGAUCUCAACACAGCGUCGCAAAGUGGCUGUGGCCAGACUGCC [G7U G21C U38C] the self-cleavage was 0.03.
In the case of GGCAGAGCUCAACACAGCGUGGCCAAAUGGCAGUGGCUAGACUGCA [A24C G27A U32A C46A], the self-cleavage is reported as 0.03.
GGCAGAGAUCAACACAGCGUGGCAAAGUGGCUGUGGCUAUACUGCA [C8A G40U C46A] gave a self-cleavage of 0.03.
With GGCAGAGCUAAACACAGCGCGGCAAAGUGGCAGUGGCUCGACUGCC [C10A U20C U32A A39C] the self-cleavage was 0.02.

Reference: the RNAGym collection of RNA variant scans (doi:10.7554/elife.90254)
